{
  "source": "patent US5385829A",
  "about": "“Method of assaying for acyl-L-carnitines and short-chain acyl-carnitines” (priority 1990, dated 1995)",
  "key": {"[1]": {"system": "acyl-carnitine esterase according to the present invention", "experiment": "Km value of the acyl-carnitine esterase for acyl-carnitines", "type": "biochemical, Alcaligenes sp. No. 981", "conditions": "inventive esterase; 100 mM tris-HCl buffer pH 8.0; substrate 1×10^-5 to 40×10^-5 M"}, "[2]": {"system": "acyl-carnitine esterase according to the present invention", "experiment": "Substrate specificity of the acyl-carnitine esterase", "type": "biochemical, Alcaligenes sp. No. 981", "conditions": "inventive esterase; 0.5 mM acyl-carnitine, 100 mM tris-HCl pH 8.0, 37° C., 10 mins"}, "[3]": {"system": "acyl-carnitine esterase originating from liver of rat", "conditions": "prior art, Mahadevan and Sauer 1969; cited from earlier work"}, "[4]": {"system": "acyl-carnitine esterase originating from liver of rat", "experiment": "Enzymatic activity and Km of rat liver esterase (Reference Example 4)", "type": "biochemical", "conditions": "rat liver esterase of Reference Example 3; for Km: text b467: of the order of 10^-3 M"}},
  "note": "Read-outs that look alike come from different tables or passages of the source. For at least one compound, name, drawing or mass did not settle the structure.",
  "data": [
    {"molecule": "CCCCCCCCCC(=O)O[C@H](CC(=O)[O-])C[N+](C)(C)C", "note": "[Decanoyl-carnitine, decanoyl-L-carnitine]", "values": [
      {"measurement": "Km", "setting": "[1]", "result": "~20", "unit": "µM"},
      {"measurement": "Enzymatic Activity in Relative %", "setting": "[2]", "result": 72, "unit": "%"},
      {"measurement": "Km", "setting": "[3]", "result": 3200, "unit": "µM"},
      {"measurement": "Enzymatic Activity (rel. %)", "setting": "[4]", "result": 100, "unit": "%"},
      {"measurement": "Km", "setting": "[4]", "result": "~2000", "unit": "µM"}
    ]},
    {"molecule": "CCCCCC(=O)O[C@H](CC(=O)[O-])C[N+](C)(C)C", "note": "[Hexanoyl-carnitine, hexanoyl-L-carnitine]", "values": [
      {"measurement": "Enzymatic Activity in Relative %", "setting": "[2]", "result": 85, "unit": "%"}
    ]},
    {"molecule": "CCCCCCCCCCCC(=O)O[C@H](CC(=O)[O-])C[N+](C)(C)C", "note": "[Lauroyl-carnitine, lauroyl-L-carnitine]", "values": [
      {"measurement": "Km", "setting": "[1]", "result": "~20", "unit": "µM"},
      {"measurement": "Enzymatic Activity in Relative %", "setting": "[2]", "result": 60, "unit": "%"}
    ]},
    {"molecule": "CCCCCCCCCCCCCC(=O)O[C@H](CC(=O)[O-])C[N+](C)(C)C", "note": "[Myristoyl-carnitine, myristoyl-L-carnitine]", "values": [
      {"measurement": "Km", "setting": "[1]", "result": "~20", "unit": "µM"},
      {"measurement": "Enzymatic Activity in Relative %", "setting": "[2]", "result": 61, "unit": "%"}
    ]},
    {"molecule": "CCCCCCCC(=O)O[C@H](CC(=O)[O-])C[N+](C)(C)C", "note": "[Octanoyl-carnitine, octanoyl-L-carnitine]", "values": [
      {"measurement": "Km", "setting": "[1]", "result": "~20", "unit": "µM"},
      {"measurement": "Enzymatic Activity in Relative %", "setting": "[2]", "result": 100, "unit": "%"},
      {"measurement": "Enzymatic Activity (rel. %)", "setting": "[4]", "result": 44, "unit": "%"},
      {"measurement": "Km", "setting": "[4]", "result": "~3000", "unit": "µM"}
    ]},
    {"molecule": "CCCCCCCCCCCCCCCC(=O)O[C@H](CC(=O)[O-])C[N+](C)(C)C", "note": "[Palmitoyl-carnitine, palmitoyl-L-carnitine]", "values": [
      {"measurement": "Km", "setting": "[1]", "result": "~30", "unit": "µM"},
      {"measurement": "Enzymatic Activity in Relative %", "setting": "[2]", "result": 41, "unit": "%"},
      {"measurement": "Enzymatic Activity (rel. %)", "setting": "[4]", "result": 27, "unit": "%"}
    ]},
    {"molecule": "CCCCCCCCCCCCCCCCCC(=O)O[C@H](CC(=O)[O-])C[N+](C)(C)C", "note": "[Stearoyl-carnitine, stearoyl-L-carnitine]", "values": [
      {"measurement": "Km", "setting": "[1]", "result": "~50", "unit": "µM"},
      {"measurement": "Enzymatic Activity in Relative %", "setting": "[2]", "result": 11, "unit": "%"}
    ]}
  ]
}
